The values that follow come from the supplement of paper PMC11417369.

This is one part of the list.

In this assay the test system is PfAP2-HC AP2 domain (GST-tagged). The assay is described as follows: gcPBM binding intensity (ln(normalized median fluorescence intensity)); higher = stronger DNA binding. The method, boiled down: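 Using an Agilent 4 × 180k array, primer-extended double-stranded 36-bp intergenic genomic probes and negative controls were exposed for 1 h to GST-fused P. falciparum DNA-binding domains expressed in E. coli. Binding was carried out in 1× PBS with 1% milk, 0.2 mg/ml BSA, 0.5% salmon testes DNA and 0.03% Triton X-100, and protein was detected with Alexa488 anti-GST antibody and a 488 nm scan. Binding intensity is the highest Masliner-normalised natural-log median intensity across replicate spots of either probe orientation.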
Take “TAATAATACCCAAGCACACACACACCCATATATATA [CACACA_site4831]”: the “gcPBM binding intensity (ln)” value is 10.6. On to “AATATAAATAAAAACACACACAATGGTACATATATA [CACACA_site3671]”, for which the “gcPBM binding intensity (ln)” value came out at 10.2.

Turning to “TACTGTGATAGCACCACACACGCAAAAGTGGGTATA [CACACA_site4749]”, the “gcPBM binding intensity (ln)” value is 9.88. For the sequence “TTTAAATCGTTAAAAACACACAAAAAAAATCAATTA [CACACA_site2519]”, the “gcPBM binding intensity (ln)” value stood at 9.59. In the case of TCTTTTTCTTCTTATGTGCACATCAATTATGCTTCT it was 10.4; in that of “GATAATTACGGACACACACACACACGCACAACTAAA [CACACA_site7254]”, 10.7. As to “ACTATCATTCATAGGTGTACCTAAATATATATATAT [XGTACX_site1696]”, the “gcPBM binding intensity (ln)” value was determined as 9.65.

Regarding “CGAATATATTCTAGACGTACTATATAATATATATAT [XGTACX_site4953]”, the “gcPBM binding intensity (ln)” value is 9.49. As for “TTATTTCGAAGAAAATGTACATATATAAATATATAC [XGTACX_site3308]”, the “gcPBM binding intensity (ln)” value was 9.41. “ATAATATTTTTTAATTGTACGTTCCATTTTTTTAAA [XGTACX_site1227]”: the “gcPBM binding intensity (ln)” value turned out to be 9.61.

With “ATAATAAAAATATATACATGCATTATTATATATATA [TGCATGCA_site799]”, the “gcPBM binding intensity (ln)” value was found to be 9.58. As for “CAACAATTTCGTCATACACACATTCAGAATATAGAT [CACACA_site7166]”, the “gcPBM binding intensity (ln)” value stood at 9.88. Take “ACCTGAAGAGTCAAACGTACAAATATTATAAAATGA [XGTACX_site3188]”: the “gcPBM binding intensity (ln)” value amounted to 9.52. In the case of “TTAATACATTAAATATGTACTTATATATCTCAACTA [XGTACX_site3997]”, the “gcPBM binding intensity (ln)” value came to 9.61. In the case of “GTTATATTTTTTTTTTGTACATAATATTGTATTGAC [XGTACX_site6338]” it was 9.82; in that of “AGTAGCATATTCTATTGTACATATATATATATATAT [XGTACX_site2980]”, 9.79. As for “ATTAAAAACGGGTGTACACATATATAAATATATATA [CACACA_site4539]”, the “gcPBM binding intensity (ln)” value stood at 9.96. In the case of “ATATGTATATATGTATGTACGTACAAATTGTTGTAA [XGTACX_site8832]”, the “gcPBM binding intensity (ln)” value came out at 10. As for “TACAAAATAACTAGCACACATATGTATAAACCTATA [CACACA_site3718]”, the “gcPBM binding intensity (ln)” value was determined as 9.9. “TGTATAAAGATATATACACACATATTTATTTATATA [CACACA_site6493]”: the “gcPBM binding intensity (ln)” value is 9.72. With “TATATACAAAAATGCACACGAAAAGTAATATATATA [CACACA_site4173]” the figure was 9.96; with “TATATAAAAATCAATTGTACTTTTTTTTTTTTTTTT [XGTACX_site7327]”, 9.28. In the case of “ATATATAAAATTATATGTACATATATAATATATATA [XGTACX_site529]”, the “gcPBM binding intensity (ln)” value amounted to 9.61. With “TATATATATATGTGCACACATATATAATATGTATAA [CACACA_site715]” the figure was 10.2.

Consider “AAATAACACATATATACACACATATAACTATAATAT [CACACA_site7298]”, for which the “gcPBM binding intensity (ln)” value stood at 10.1. With “TAGAACAAATAAAACACACACATATATATATATATG [CACACA_site2768]” the figure was 10.5. With “TCATCCGTTTTAAGAAGTACATATTTGAACATATAA [XGTACX_site8040]” the figure was 9.25; with “CATAGGATTATACTTTTGGAATATTATTAAATATGT [XGTACX_negctrl_site75]”, 9.49. As to “TTTATTTTTTAATGTTGTACAATGTTGTTTAATCAA [XGTACX_site6489]”, the “gcPBM binding intensity (ln)” value came out at 9.65. For the sequence “TTTTTTTCTTTTCAAACACACAATTGGTATATATTA [CACACA_site3320]”, the “gcPBM binding intensity (ln)” value stood at 9.81.

With “ACATGTCAAACATTTGCACACAAAAAAATAAAAATT [CACACA_site691]”, the “gcPBM binding intensity (ln)” value was 9.93. With “AAAAAAAAAAAAAACACACACACAATAGTATATAAA [CACACA_site957]”, the “gcPBM binding intensity (ln)” value is 10.3. Take “TTGTTACTGTTTTGGTGTACAAAAAAAAAAAATATA [XGTACX_site5762]”: the “gcPBM binding intensity (ln)” value is 9.61.

With “TACTTACTTACTTACTCACACACATATACAAAGAAA [CACACA_site3348]”, the “gcPBM binding intensity (ln)” value was 10.1. For “AATACAGATAATACAACACACAAGTAATATAAACCT [CACACA_site5900]”, the “gcPBM binding intensity (ln)” value worked out at 10.2.

For “TATATATATTTTTATGCACACACAAAGAAAATTTTC [CACACA_site8931]”, the “gcPBM binding intensity (ln)” value stood at 9.83.

“ATCACAAAATGGAATGTTCTATGATATATATGTATA [XGTACX_negctrl_site460]”: the “gcPBM binding intensity (ln)” value turned out to be 9.54. With “TGTAAATATTTATTCACACATAATCAATTAGAAAAA [CACACA_site5944]”, the “gcPBM binding intensity (ln)” value is 9.58. “GATGATTATATATATACGCACACTTTTTTTTTTTTT [CACACA_site2652]”: the “gcPBM binding intensity (ln)” value came out at 9.94. In the case of “TATAAATACAGATACACACACACACCGATATATATA [CACACA_site5271]”, the “gcPBM binding intensity (ln)” value amounted to 10.4. With “AATATATAAATCTATTGTACATAAAGAGGATAATAA [XGTACX_site1022]”, the “gcPBM binding intensity (ln)” value is 9.75. With “ATATATATATATATATGTACATATTTATTTATTTAT [XGTACX_site5161]” the figure was 9.65; with “AGCACAGACTAATAAACACACACATATATATATATA [CACACA_site8021]”, 10.5.

Turning to “CTCATTCTTTTTTGATGTACTTTTTTTTTTTAAGTT [XGTACX_site2875]”, the “gcPBM binding intensity (ln)” value is 9.53. Take “TTTTATTAATATTATTTATCTTCTCAAAAGATATAT [XGTACX_negctrl_site202]”: the “gcPBM binding intensity (ln)” value is 9.48.

Regarding “TATCTTATATTTACACGTACGTAGAATTTATAAGTT [XGTACX_site3460]”, the “gcPBM binding intensity (ln)” value is 9.55.

For the sequence “CACACGTATAAATATACACACTAAAATACACGCACA [CACACA_site7876]”, the “gcPBM binding intensity (ln)” value came to 9.95.

In the case of “AAAAGAGAAACATTTACACACAAATATAGATATATG [CACACA_site1027]”, the “gcPBM binding intensity (ln)” value is 9.86. With “TTCAATTAAAAAATATGTACGCATAAATTGATATAT [XGTACX_site4289]”, the “gcPBM binding intensity (ln)” value was found to be 9.55. As for “TTGTATAATTTAACAAGTACAAAATAAATTTGTATA [XGTACX_site5505]”, the “gcPBM binding intensity (ln)” value came out at 9.65. With “TTTTATGGAAAGTGTTGTACATATTTTTGTATATGT [XGTACX_site7356]”, the “gcPBM binding intensity (ln)” value was 9.77. With “ATAGTATACGGACACACACACACACCGATATATATA [CACACA_site5032]” the figure was 11.2.

Take “TATAACAGGAATTATATATATATATATATATATTAT [CACACA_negctrl_site911]”: the “gcPBM binding intensity (ln)” value was found to be 9.52. Turning to “CTTTTTTTAGTTAGGTGTACAATTTGTTATTATTAG [XGTACX_site1507]”, the “gcPBM binding intensity (ln)” value turned out to be 9.7. Take “TTTTTTTTTTTTTTTTGTACATATTTCTTATAAGTG [XGTACX_site6459]”: the “gcPBM binding intensity (ln)” value stood at 9.19. “TTTAATATGTATTTTTTTTTTTTTTTTTTTTTTTTT [XGTACX_negctrl_site440]”: the “gcPBM binding intensity (ln)” value was found to be 9.24.

In the case of “TTTTATATCTAGTTTATATTTCTTAAATAAATAAAT [GTGCAC_negctrl_site245]”, the “gcPBM binding intensity (ln)” value was found to be 9.28.
